# Source: PubChem BioAssay AID1347417 (National Center for Advancing Translational Sciences (NCATS), 2020)
# The whole screen tested about 120,000 compounds, of which about 5,300 (4.4%) were called active. The inconclusive results got no clear call from the source; some entries with a clear call stand among them for comparison. Calls follow the shape of the dose curve; as a rule, active = well fitted inhibition curve with a large enough effect; inconclusive = small, poorly fitted or top-dose-only effect; inactive = no such curve, though single readings can be large or run the other way. A potency beside an inconclusive call is a rough fit, not a confirmed value.
# Experiment: qHTS Primary assay for Inhibitors of Plasmodium falciparum Dd2 growth in vitro; also: nearly all actives have a fitted effect of over 65% in size
# Conditions: P. falciparum Dd2 growth, SYBR Green, 72 h; series mostly up to 28.9 µM
# How it was run: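 Infected erythrocytes (Dd2, 0.3% parasitemia, 2.5% hematocrit final) are added to compound in RPMI-1640/Albumax II medium, grown 72 h at 37C in low oxygen, then lysed with saponin/Triton-X containing SYBR Green and read by fluorescence.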
# Potency is read from the fitted curve at half-maximal effect; tags tell the direction and shape of the fitted curve.
row,Structure (SMILES),Potency
1,O=C1[C@@H]2C[C@@H](O)CN2C2(CN(Cc3ccccn3)C2)C(=O)N1Cc1ccccc1F,"inconclusive: 28.2 µM [inhibitor, single point]"
2,Cc1ccc(-n2ncc(C(=O)N3CCN(c4cccc(C)c4C)CC3)c2C2CCNCC2)c(C)c1,"inconclusive: 11.2 µM [inhibitor, single point]"
3,CCOC(=O)c1cc(-c2ccc(F)cc2)n(CCC(=O)NCc2ccc(C)cc2)c1C,"inconclusive: 11.2 µM [inhibitor, single point]"
4,Fc1ccc(-c2cc3c(cn2)CN(Cc2ccncc2)CCN3)cc1Cl,"inconclusive: 31.6 µM [inhibitor, single point]"
5,O=C(NCc1cccs1)c1noc(-c2ccc(F)cc2)n1,inactive
6,COCCC1(N(C)C)CCN(C(=O)CC2CCCCC2)CC1,"inconclusive: 10 µM [inhibitor, single point]"
7,CN(Cc1cccnc1)C(=O)CCC1CCN(S(=O)(=O)c2ccccc2)CC1,"inconclusive: 20 µM [inhibitor, single point]"
8,O=C(COc1ccccc1F)Nc1ccc2nc(SCc3ccccc3)sc2c1,"inconclusive: 10 µM [inhibitor, single point]"
9,CC(=O)N1CCC(c2nc(-c3nnn4c3COC(c3ccc(C)cc3)C4)no2)CC1 (stereo not drawn),"inconclusive: 2.51 µM [inhibitor, full curve, poor fit]"
10,CC1=Nc2cc(C(=O)NC(C)c3ccccc3)ccc2Sc2ccccc21 (stereo not drawn),"inconclusive: 12.6 µM [inhibitor, single point]"
11,CS(=O)(=O)N1CC2(CCN(CC3CCCCC3)C2)Cc2ccccc21 (stereo not drawn),"inconclusive: 12.6 µM [inhibitor, partial curve, poor fit]"
12,O=C(Cn1ncc2c3ccccc3n(Cc3cccc(Cl)c3)c2c1=O)N1CCCCC1,"inconclusive: 10 µM [inhibitor, single point]"
13,CC(=O)Nc1cccc(-c2ccc3c(n2)c(=O)ncn3Cc2ccccc2)c1,"inconclusive: 11.2 µM [inhibitor, partial curve, poor fit]"
14,O=C(CCc1nc2ccccc2s1)N1CCC(c2nc(C3CCOCC3)no2)CC1,"inconclusive: 1.78 µM [inhibitor, full curve]"
15,CC1=C[C@@H](CNC(=O)NC2CCCCC2)[C@H](C(C)C)C[C@H]1Cc1nc2ccc(C)cc2[nH]1,inactive
16,COc1ccc(C(=O)NCc2nnc3ccc(-c4ccc(Cl)cc4)nn23)cc1F,"inconclusive: 0.141 µM [inhibitor, full curve, poor fit]"
17,CC1(C)[C@H](Cc2cc(CN3CCOCC3)on2)C[C@@H]1NCc1ccccc1O,"inconclusive: 31.6 µM [inhibitor, single point]"
18,CN(C(=O)NCc1noc2ccccc12)c1cccc(Cl)c1,"inconclusive: 17.8 µM [inhibitor, single point]"
19,Nc1ncccc1CN1CC[C@@H]2OCC(=O)N(Cc3ccccc3)[C@H]2CC1,"inconclusive: 3.55 µM [inhibitor, partial curve, poor fit]"
20,COc1ccc(-c2noc([C@@H]3Cc4nc[nH]c4CN3Cc3ccc(CO)o3)n2)cc1,"inconclusive: 11.2 µM [inhibitor, single point]"
21,CCCN1CCCc2cc(CN(CCCN3CCOCC3)C(=O)Nc3ccc(OCC)cc3)ccc21,"inconclusive: 17.8 µM [inhibitor, single point]"

row,Structure (SMILES),Potency
1,Cc1cccc(Cn2nnc3c(=O)[nH]c(C4CCCN(C(=O)c5ccc(C(C)(C)C)cc5)C4)nc32)c1 (stereo not drawn),active: 1 µM
2,C#CCNC(=O)c1nc(-c2cccc(C(F)(F)F)c2)c2ccccn12,"inconclusive: 12.6 µM [inhibitor, single point]"
3,COc1ccc2c(CNC3CCC(C)CC3)c(C(=O)O)n(Cc3ccccc3)c2c1 (stereo not drawn),"inconclusive: 20 µM [inhibitor, single point]"
4,Cc1ccc(C)c(NC2=C(c3ccc(C(F)(F)F)cc3)C(=O)c3ccccc32)c1,active: 1.41 µM
5,CNC(=O)c1cccc(-c2cnc(Nc3cccnc3OC)c3c2CCO3)c1,inactive
6,O=S(=O)(Cc1noc([C@@H]2C[C@@H](O)CN2Cc2cc3ccccc3o2)n1)c1ccc(F)cc1,"inconclusive: 20 µM [inhibitor, partial curve, poor fit]"
7,COc1ccc(C2(C(=O)NCCc3ncc(C)n3CC3CC3)CC2)cc1,inactive
8,COCC(=O)N[C@@H]1CN(Cc2ccc(C)c(C)c2)C[C@H]1CO,inactive
9,CC1=NS(=O)(=O)N(C)C=C1C(=O)OCc1nc(-c2ccc(Br)cc2)no1,inactive
10,COc1cccc(CC(=O)NCCn2ccn3nc(-c4ccc(C)cc4C)cc3c2=O)c1,"inconclusive: 1.78 µM [inhibitor, full curve, poor fit]"
11,Cc1ccc(-n2ccnc(NCc3cccs3)c2=O)cc1C,inactive
12,CN(C)c1ccc(CNC(=O)C2(c3ccc(NS(C)(=O)=O)cc3)CCCCC2)cc1,"inconclusive: 7.94 µM [inhibitor, partial curve]"
13,Clc1ccc(CNC[C@H]2Cn3c(-c4cccc(Cl)c4)cnc3CO2)cc1,"inconclusive: 5.62 µM [inhibitor, single point]"
14,COCCC(=O)N1CC(Oc2ccc(-c3noc(-c4ccccc4)n3)cc2)C1,"inconclusive: 7.94 µM [inhibitor, partial curve, poor fit]"
15,CCn1nccc1C(=O)N1CCC2(CC1)NCCc1c2[nH]c2ccccc12,"inconclusive: 5.01 µM [inhibitor, partial curve, poor fit]"
16,CC1(CNCc2ccccc2)COc2ccc(C(=O)NCc3cccs3)cc2N1 (stereo not drawn),"inconclusive: 3.55 µM [inhibitor, partial curve]"
17,CCC(C(=O)Nc1cc(OC)ccc1OC)n1nc(-c2ccccc2)c2c(c1=O)CCCC2 (stereo not drawn),"inconclusive: 7.08 µM [inhibitor, partial curve, poor fit]"
18,COCCN1C(=O)c2ccccc2C(C(=O)Nc2nnc(C3CC3)s2)C12CCCCC2 (stereo not drawn),active: 7.94 µM
19,CCCN(CC1CC1)C(=O)[C@@H]1COCC(=O)N1Cc1ccccc1,"inconclusive: 0.631 µM [inhibitor, full curve]"
20,COCCN1C(=O)N(C)C(=O)C12CCN(CCc1ccccc1)C2 (stereo not drawn),inactive
21,COc1cccc(CC(=O)N2[C@H]3CC[C@@H]2c2cnc(-c4ccc(F)cc4)nc2C3)c1,"inconclusive: 0.141 µM [inhibitor, full curve, poor fit]"

row,Structure (SMILES),Potency
1,Cn1c2ccccc2c2c(C(=O)N3CCN(c4cccc(C(F)(F)F)c4)CC3)cn(C3CCCCC3)c(=O)c21,"inconclusive: 17.8 µM [inhibitor, single point]"
2,CCNC(=O)C1CCCN(S(=O)(=O)c2ccccc2)CCC(=O)NCC1 (stereo not drawn),"inconclusive: 2.51 µM [inhibitor, single point]"
3,CCCC(=O)N1Cc2ccccc2CC2(CCCCN2CC)C1 (stereo not drawn),active: 10 µM
4,CCOc1ccccc1CNC(=O)C1CCN(Cc2cc3ccccc3n2Cc2ccccc2)CC1,"inconclusive: 10 µM [inhibitor, single point]"
5,COc1ccc(-c2noc(-c3cccn3CC(=O)NC3CCCCC3)n2)cc1F,"inconclusive: 0.355 µM [inhibitor, full curve, poor fit]"
6,Cc1cc2cc(-c3c(C)noc3C)nc(NCc3cccc(F)c3)c2o1,"inconclusive: 7.94 µM [inhibitor, partial curve]"
7,Cc1ccc(C(=O)N2CCC(c3n[nH]c(=O)n3Cc3ccc(F)cc3)CC2)s1,"inconclusive: 10 µM [inhibitor, single point]"
8,CN(C(=O)c1ccc2c(c1)NC(C)(COc1cccnc1)CO2)c1ccccc1 (stereo not drawn),"inconclusive: 35.5 µM [inhibitor, single point]"
9,CN(C(=O)Cn1c(=O)n(Cc2ccc(C(=O)NCc3ccc4c(c3)OCO4)cc2)c(=O)c2ccccc21)c1ccccc1,"inconclusive: 0.891 µM [inhibitor, full curve]"
10,O=C(COc1ccccc1)NCCc1csc(-c2ccc(F)cc2)n1,inactive
11,Cc1ccc(CN2C(=O)OC(c3cccc(NC(=O)c4ccccc4)c3)C2C(=O)NCCC(C)C)cc1 (stereo not drawn),active: 7.08 µM
12,CN1CCCN(S(=O)(=O)c2cccc(Cl)c2)c2ccccc21,active: 11.2 µM
13,CCOc1ccccc1CN1CCCN(S(=O)(=O)c2ccccc2)CCC(=O)NCC1,"inconclusive: 3.16 µM [inhibitor, partial curve, poor fit]"
14,Cc1noc(C)c1CC(=O)NCC1Cn2cccc2C(=O)N1C (stereo not drawn),inactive
15,CC(C)(C)OC(=O)NC(CN)c1ccccc1Cl (stereo not drawn),"inconclusive: 2.24 µM [inhibitor, full curve]"
16,Cc1ccc(CN2CCCc3nc(C)nc(-c4ccc(O)cc4)c3C2)cc1,active: 2.82 µM
17,Cc1ncoc1C(=O)N1CCC2(CC1)CC(N(Cc1ccccc1)C1CC1)CCO2 (stereo not drawn),"inconclusive: 15.8 µM [inhibitor, single point]"
18,Fc1ccc2nc(CO[C@H]3CN(CC4CC4)C[C@H]3F)[nH]c2c1,active: 11.2 µM
19,Cc1cc(C)c([S+](=O)([O-])c2nnn3c2nc(NC2CC2)c2ccccc23)c(C)c1,"inconclusive: 17.8 µM [inhibitor, single point]"
20,COc1cc(C2Nc3ccccc3-c3nnc(SCc4ccc(Cl)cc4)nc3O2)ccc1OCC(=O)O (stereo not drawn),"inconclusive: 3.98 µM [inhibitor, single point]"
21,c1ccc(-c2nnc3n2CCN(CC2CCCCC2)C3)cc1,"inconclusive: 22.4 µM [inhibitor, single point]"
